Laboratory results from patent US20240190943A1 (HANGZHOU EXEGENESIS BIO, published 2024).

Tests used:
[1] = target: T1, VEGF-A (UniProt P15692-4 27-191, limits assumed); assay: rVEGF ELISA value relative to the Western blot intensity of the same DMEM 72h conditioned medium
T1 construct: also called rVEGF; vascular endothelial growth factor
T1 sequence (looked up): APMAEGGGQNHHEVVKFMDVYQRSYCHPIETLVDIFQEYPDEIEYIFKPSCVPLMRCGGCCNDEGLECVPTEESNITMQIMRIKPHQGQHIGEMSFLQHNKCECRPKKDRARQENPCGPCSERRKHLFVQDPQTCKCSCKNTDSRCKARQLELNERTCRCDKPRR

[2] = target: T2, angiopoietin 2 (UniProt O15123 19-496, limits assumed); assay: Ang2 binding ELISA (OD450), titration in pM of the product of plasmid-transfected cells
T2 construct: also called Ang2; ANGPT2
T2 sequence (looked up): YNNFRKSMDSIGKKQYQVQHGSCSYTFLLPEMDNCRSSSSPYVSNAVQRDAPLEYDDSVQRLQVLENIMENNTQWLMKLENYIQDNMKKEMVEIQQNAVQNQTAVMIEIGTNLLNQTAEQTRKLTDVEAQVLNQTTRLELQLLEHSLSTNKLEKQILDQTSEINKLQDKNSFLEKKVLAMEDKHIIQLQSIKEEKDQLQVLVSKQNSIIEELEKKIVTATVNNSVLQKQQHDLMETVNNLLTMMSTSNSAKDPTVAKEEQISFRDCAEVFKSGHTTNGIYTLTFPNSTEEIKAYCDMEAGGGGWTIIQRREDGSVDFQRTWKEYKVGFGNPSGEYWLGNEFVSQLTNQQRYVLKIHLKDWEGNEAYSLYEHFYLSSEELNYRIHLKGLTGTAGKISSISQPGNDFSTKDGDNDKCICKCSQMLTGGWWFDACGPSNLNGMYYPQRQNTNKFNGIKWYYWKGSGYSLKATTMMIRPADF

[3] = target: T1, VEGF-A; assay: rVEGF ELISA value divided by the Western blot intensity of the same conditioned medium
[4] = target: T1, VEGF-A; assay: ELISA: wells coated with rVEGF, conditioned medium of HEK293 cells, anti-Fc-HRP, OD450; given as concentration in the medium
[5] = target: T1, VEGF-A; assay: ELISA: wells coated with rVEGF, DMEM 72h conditioned medium, anti-Fc-HRP, OD450; given as concentration in the medium
[6] = target: T3, VEGF-C (UniProt P49767 103-227, limits assumed); assay: ELISA on VEGF-C, protein affinity-purified from transfected HEK293T cells; axis 'VEGF-C (130nM) Affinity OD450'
T3 sequence (looked up): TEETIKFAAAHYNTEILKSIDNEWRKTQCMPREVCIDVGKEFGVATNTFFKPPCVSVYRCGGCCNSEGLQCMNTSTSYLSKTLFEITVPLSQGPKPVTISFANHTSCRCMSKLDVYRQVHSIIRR
Method: HEK293T cells were transfected with plasmid DNA of pEXG102-02, pEXG102-30 or pEXG102-31 and the target protein expressed were affinity purified from the cell lysate. Binding capability of EXG102-02, EXG102-30 or EXG102-31 to VEGF-A, Ang2, or VEGF-C was measured by ELISA respectively. Bars present Mean with SD.
In vitro VEGF-A, Ang2, or VEGF-C binding affinity of the transgene products expressed from HEK293T cells was measured. HEK293T cells were transfected with plasmid DNA of pEXG102-02, pEXG102-30 or pEXG102-31. The target protein expressed were affinity purified from the cell lysate. Binding capability of EXG102-02, EXG102-30 and EXG102-31 to VEGF-A, Ang2, and VEGF-C was measured by ELISA, respectively.

B1: Exemplary polypeptide 1 (Fc fusion)
chain: SDTGRPFVEMYSEIPEIIHMTEGRELVIPCRVTSPNITVTLKKFPLDTLIPDGKRIIWDSRKGFIISNATYKEIGLLTCEATVNGHLYKTNYLTHRQTNTIIDVVLSPSHGIELSVGEKLVLNCTARTELNVGIDFNWEYPSSKHQHKKLVNRDLKTQSGSEMKKFLSTLTIDGVTRSDQGLYTCAASSGLMTKKNSTFVRVHEK[sequence of human IgG1 Fc not given]GGGGGAQQEECEWDPWTCEHMGSGSATGGSGSTASSGSGSATHQEECEWDPWTCEHMLE
notes: also called EXG102-04; EXG102-07
[1]
  Ratio ELISA/WB: 1.8
[2]
  EC50 (read off the curve): ~0.08 nM
[3]
  Ratio ELISA/WB: 1.1
[4]
  ELISA ug/mL (Binding to rVEGF): 8.22 µg/mL
[5]
  ELISA ug/ml (Binding to rVEGF): 5.38 µg/mL

B2: Exemplary polypeptide 3 (Fc fusion)
chain: GGGGGSGGGGGAQQEECEWDPWTCEHMGSGSATGGSGSTASSGSGSATHQEECEWDPWTCEHMLEGGGGGSSDTGRPFVEMYSEIPEIIHMTEGRELVIPCRVTSPNITVTLKKFPLDTLIPDGKRIIWDSRKGFIISNATYKEIGLLTCEATVNGHLYKTNYLTHRQTNTIIDVVLSPSHGIELSVGEKLVLNCTARTELNVGIDFNWEYPSSKHQHKKLVNRDLKTQSGSEMKKFLSTLTIDGVTRSDQGLYTCAASSGLMTKKNSTFVRVHEK[sequence of human IgG1 Fc not given]
notes: also called EXG102-11; EXG102-12
[2]
  EC50 (read off the curve): ~0.05 nM

B3: Exemplary polypeptide 12 (as in EXG102-31) (Fc fusion)
chain: GGGGGAQGSGSATGGSGSTASSGSGSATHKFNPLDELEETLYEQFTFQQGGGGGQEECEWDPWTCEHMLEGGGGGSSDTGRPFVEMYSEIPEIIHMTEGRELVIPCRVTSPNITVTLKKFPLDTLIPDGKRIIWDSRKGFIISNATYKEIGLLTCEATVNGHLYKTNYLTHRQTNTIIDVVLSPSHGIELSVGEKLVLNCTARTELNVGIDFNWEYPSSKHQHKKLVNRDLKTQSGSEMKKFLSTLTIDGVTRSDQGLYTCAASSGLMTKKNSTFVRVHEKGGGGGSYSMTPPTLNITEESHVIDTGDSLSISCRGQHPLEWAWPGAQEAPATGDKDSEDTGVVRDCEGTDARPYCKVLLLHEVHANDTGSYVCYYKYIKARIEGTTAASSYVFVRDFEQPFINKPDTLLVNRKDAMWVPCLVSIPGLNVTLRSQSSVLWPDGQEVVWDDRRGMLVSTPLLHDALYLQCETTWGDQDFLSNPFLVHITG[sequence of human IgG1 Fc not given]
notes: also called pEXG102-31 transgene product
[6]
  EC50 (read off the curve): ~7 nM

B4: Exemplary polypeptide 11 (as in EXG102-30) (Fc fusion)
chain: GGGGGAQGSGSATGGSGSTASSGSGSATHKFNPLDELEETLYEQFTFQQGGGGGQEECEWDPWTCEHMLEGGGGGSSDTGRPFVEMYSEIPEIIHMTEGRELVIPCRVTSPNITVTLKKFPLDTLIPDGKRIIWDSRKGFIISNATYKEIGLLTCEATVNGHLYKTNYLTHRQTNTIIDVVLSPSHGIELSVGEKLVLNCTARTELNVGIDFNWEYPSSKHQHKKLVNRDLKTQSGSEMKKFLSTLTIDGVTRSDQGLYTCAASSGLMTKKNSTFVRVHEK[sequence of human IgG1 Fc not given]
notes: also called pEXG102-30 transgene product
[6]
  binding result: no binding (tested: about 160000 pM)
